Measured values from the supplement of paper PMC8728848.
The list shows a part of the results.

How the values were obtained:
Experiment in all cases: glycan array binding signal (z-score within array); higher = stronger binding
Settings in all cases: glycan notation: IUPAC condensed, linker removed
[1] = molecular target: Gal(b1-4)GlcNAc(b1-3)Gal(b1-4)GlcNAc
Outline: (§1)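 The binding signal is a Z-score computed within each array and averaged over linkers. Arrays of the same protein sequence at different concentrations or buffers were also averaged together. Data originate from 3228 arrays in the Consortium for Functional Glycomics database, kept only where the protein sequence was available.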

[2] = molecular target: Gal(b1-4)GlcNAc(b1-3)Gal(b1-4)GlcNAc(b1-2)Man(a1-3)[Gal(b1-4)GlcNAc(b1-3)Gal(b1-4)GlcNAc(b1-2)Man(a1-6)]Man(b1-4)GlcNAc(b1-4)GlcNAc
Outline: as §1

[3] = molecular target: Gal(b1-4)GlcNAc(b1-3)Gal(b1-4)GlcNAc(b1-2)Man(a1-3)[Gal(b1-4)GlcNAc(b1-3)Gal(b1-4)GlcNAc(b1-2)Man(a1-6)]Man(b1-4)GlcNAc(b1-4)[Fuc(a1-6)]GlcNAc
Outline: as §1

[4] = molecular target: Gal(b1-4)GlcNAc(b1-3)Gal(b1-4)GlcNAc(b1-2)[Gal(b1-4)GlcNAc(b1-3)Gal(b1-4)GlcNAc(b1-6)]Man(a1-6)[Gal(b1-4)GlcNAc(b1-3)Gal(b1-4)GlcNAc(b1-2)Man(a1-3)]Man(b1-4)GlcNAc(b1-4)GlcNAc
Outline: as §1

[5] = molecular target: Gal(b1-4)GlcNAc(b1-3)Gal(b1-4)GlcNAc(b1-2)[Gal(b1-4)GlcNAc(b1-3)Gal(b1-4)GlcNAc(b1-6)]Man(a1-6)[Gal(b1-4)GlcNAc(b1-3)Gal(b1-4)GlcNAc(b1-2)Man(a1-3)]Man(b1-4)GlcNAc(b1-4)[Fuc(a1-6)]GlcNAc
Outline: as §1

[6] = molecular target: Gal(b1-4)GlcNAc(b1-3)Gal(b1-4)GlcNAc(b1-3)Gal(b1-4)GlcNAc
Outline: as §1

[7] = molecular target: Gal(b1-4)GlcNAc(b1-3)Gal(b1-4)GlcNAc(b1-3)Gal(b1-4)GlcNAc(b1-2)Man(a1-3)[Gal(b1-4)GlcNAc(b1-3)Gal(b1-4)GlcNAc(b1-3)Gal(b1-4)GlcNAc(b1-2)Man(a1-6)]Man(b1-4)GlcNAc(b1-4)GlcNAc
Outline: as §1

[8] = molecular target: Gal(b1-4)GlcNAc(b1-3)Gal(b1-4)GlcNAc(b1-3)Gal(b1-4)GlcNAc(b1-2)Man(a1-3)[Gal(b1-4)GlcNAc(b1-3)Gal(b1-4)GlcNAc(b1-3)Gal(b1-4)GlcNAc(b1-2)Man(a1-6)]Man(b1-4)GlcNAc(b1-4)[Fuc(a1-6)]GlcNAc
Outline: as §1

[9] = molecular target: Gal(b1-4)GlcNAc(b1-3)Gal(b1-4)GlcNAc(b1-3)Gal(b1-4)GlcNAc(b1-2)[Gal(b1-4)GlcNAc(b1-3)Gal(b1-4)GlcNAc(b1-3)Gal(b1-4)GlcNAc(b1-6)]Man(a1-6)[Gal(b1-4)GlcNAc(b1-3)Gal(b1-4)GlcNAc(b1-3)Gal(b1-4)GlcNAc(b1-2)Man(a1-3)]Man(b1-4)GlcNAc(b1-4)[Fuc(a1-6)]GlcNAc
Outline: as §1

[10] = molecular target: Gal(b1-4)GlcNAc(b1-3)Gal(b1-4)GlcNAc(b1-3)Gal(b1-4)GlcNAc(b1-3)Gal(b1-4)GlcNAc(b1-2)Man(a1-3)[Gal(b1-4)GlcNAc(b1-3)Gal(b1-4)GlcNAc(b1-3)Gal(b1-4)GlcNAc(b1-3)Gal(b1-4)GlcNAc(b1-2)Man(a1-6)]Man(b1-4)GlcNAc(b1-4)GlcNAc
Outline: as §1

[11] = molecular target: Gal(b1-4)GlcNAc(b1-3)Gal(b1-4)GlcNAc(b1-3)Gal(b1-4)GlcNAc(b1-3)Gal(b1-4)GlcNAc(b1-2)Man(a1-3)[Gal(b1-4)GlcNAc(b1-3)Gal(b1-4)GlcNAc(b1-3)Gal(b1-4)GlcNAc(b1-3)Gal(b1-4)GlcNAc(b1-2)Man(a1-6)]Man(b1-4)GlcNAc(b1-4)[Fuc(a1-6)]GlcNAc
Outline: as §1

[12] = molecular target: Gal(b1-4)GlcNAc(b1-3)Gal(b1-4)GlcNAc(b1-3)Gal(b1-4)GlcNAc(b1-3)Gal(b1-4)GlcNAc(b1-2)[Gal(b1-4)GlcNAc(b1-3)Gal(b1-4)GlcNAc(b1-3)Gal(b1-4)GlcNAc(b1-3)Gal(b1-4)GlcNAc(b1-6)]Man(a1-6)[Gal(b1-4)GlcNAc(b1-3)Gal(b1-4)GlcNAc(b1-3)Gal(b1-4)GlcNAc(b1-3)Gal(b1-4)GlcNAc(b1-2)Man(a1-3)]Man(b1-4)GlcNAc(b1-4)[Fuc(a1-6)]GlcNAc
Outline: as §1

[13] = molecular target: Gal(b1-4)GlcNAc(b1-3)Gal(b1-4)GlcNAc(b1-3)Gal(b1-4)GlcNAc(b1-3)Gal(b1-4)GlcNAc(b1-3)Gal(b1-4)GlcNAc(b1-2)Man(a1-3)[Gal(b1-4)GlcNAc(b1-3)Gal(b1-4)GlcNAc(b1-3)Gal(b1-4)GlcNAc(b1-3)Gal(b1-4)GlcNAc(b1-3)Gal(b1-4)GlcNAc(b1-2)Man(a1-6)]Man(b1-4)GlcNAc(b1-4)GlcNAc
Outline: as §1

[14] = molecular target: Gal(b1-4)GlcNAc(b1-3)Gal(b1-4)GlcNAc(b1-3)Gal(b1-4)GlcNAc(b1-3)Gal(b1-4)GlcNAc(b1-3)Gal(b1-4)GlcNAc(b1-2)Man(a1-3)[Gal(b1-4)GlcNAc(b1-3)Gal(b1-4)GlcNAc(b1-3)Gal(b1-4)GlcNAc(b1-3)Gal(b1-4)GlcNAc(b1-3)Gal(b1-4)GlcNAc(b1-2)Man(a1-6)]Man(b1-4)GlcNAc(b1-4)[Fuc(a1-6)]GlcNAc
Outline: as §1

[15] = molecular target: Gal(b1-4)GlcNAc(b1-3)Gal(b1-4)GlcNAc(b1-3)Gal(b1-4)GlcNAc(b1-3)Gal(b1-4)GlcNAc(b1-3)Gal(b1-4)GlcNAc(b1-2)[Gal(b1-4)GlcNAc(b1-3)Gal(b1-4)GlcNAc(b1-3)Gal(b1-4)GlcNAc(b1-3)Gal(b1-4)GlcNAc(b1-3)Gal(b1-4)GlcNAc(b1-6)]Man(a1-6)[Gal(b1-4)GlcNAc(b1-3)Gal(b1-4)GlcNAc(b1-3)Gal(b1-4)GlcNAc(b1-3)Gal(b1-4)GlcNAc(b1-3)Gal(b1-4)GlcNAc(b1-2)Man(a1-3)]Man(b1-4)GlcNAc(b1-4)[Fuc(a1-6)]GlcNAc
Outline: as §1

[16] = molecular target: Gal(b1-4)GlcNAc(b1-3)Gal(b1-4)GlcNAc(b1-3)Gal(b1-4)GlcNAc(b1-3)Gal(b1-4)GlcNAc(b1-3)Gal(b1-4)GlcNAc(b1-3)Gal(b1-4)GlcNAc(b1-2)Man(a1-3)[Gal(b1-4)GlcNAc(b1-3)Gal(b1-4)GlcNAc(b1-3)Gal(b1-4)GlcNAc(b1-3)Gal(b1-4)GlcNAc(b1-3)Gal(b1-4)GlcNAc(b1-3)Gal(b1-4)GlcNAc(b1-2)Man(a1-6)]Man(b1-4)GlcNAc(b1-4)GlcNAc
Outline: as §1

[17] = molecular target: Gal(b1-4)GlcNAc(b1-3)Gal(b1-4)GlcNAc(b1-3)GalNAc
Outline: as §1

[18] = molecular target: Gal(b1-4)GlcNAc(b1-3)Gal(b1-4)GlcNAc(b1-3)[Gal(b1-4)GlcNAc(b1-3)Gal(b1-4)GlcNAc(b1-6)]GalNAc
Outline: as §1

[19] = molecular target: Gal(b1-4)GlcNAc(b1-3)Gal(b1-4)GlcNAc(b1-6)[Gal(b1-3)]GalNAc
Outline: as §1

B1: CaSRK1 (Capsicum annuum) (protein)
chain: MALCKIFPFAFILLSCSCYLISGQRFDYPTANLSTTWINSVSAPHSIDYTDGSRIRAILLRGTFGPRYACGFYCNGNCESYLFAIFIVQTNSASQITSPAIGFPQVVWSANRNNPVKINSTLQLTAEGDLVLRDADGTLAWSTNTAGKSVAGLSLTDEGNLALFDSKNATVWQSFDHPTDALVPGQKLVPGMKLTASVSRTNWTAGGLFALSAIDNGLVAFVESNPPQKYFEASVGGSNTSGGSNYVKYLNGSLTLFTHSADTTELILISITPASSAQYMKLESNGHLKVYEWTSRGWREVDDLLTGFRGECNYPTVCGRYGICTMGQCSCPTSSSSRTYFRPIDVRRPSLGCSEVTKLTCQNTKKHSPLEVEDVDYFAFKAGISDTDLNTCKRACLEKCSCKAAFFRSGLNSSRTRGDCYLPTEIFSIMNNEKDRTRYDSVAFIKVQV
- glycan array binding signal (z-score) [1]: -0.482
- glycan array binding signal (z-score) [2]: 1.99
- glycan array binding signal (z-score) [3]: -0.132
- glycan array binding signal (z-score) [4]: 3.63
- glycan array binding signal (z-score) [5]: 0.3
- glycan array binding signal (z-score) [6]: -0.547
- glycan array binding signal (z-score) [7]: 0.262
- glycan array binding signal (z-score) [8]: 0.595
- glycan array binding signal (z-score) [9]: 0.148
- glycan array binding signal (z-score) [10]: -0.535
- glycan array binding signal (z-score) [11]: 0.677
- glycan array binding signal (z-score) [12]: -0.328
- glycan array binding signal (z-score) [13]: -0.244
- glycan array binding signal (z-score) [14]: -0.453
- glycan array binding signal (z-score) [15]: -0.339
- glycan array binding signal (z-score) [16]: -0.568
- glycan array binding signal (z-score) [17]: 2.85
- glycan array binding signal (z-score) [18]: 0.61
- glycan array binding signal (z-score) [19]: 0.804
